Laboratory results as given in PubChem BioAssay AID488969 (Vanderbilt High Throughput Screening Facility, 2010).
In all, about 110,000 compounds were measured (“z-score”: median about -0.1, highest 2% from about 2 on). The list shows a part of the results.

biological target: Metabotropic glutamate receptor 8 (Rattus norvegicus) (UniProt P70579); test: rat mGluR8 modulators via GIRK flux, primary screen, cell-based, thallium flux, HTS (AID 488969); settings: HEK293 rat mGluR8, GIRK (G protein-gated inwardly rectifying potassium channel) thallium flux, FluoZin2; at 10 µM; stronger effect = higher value; submaximal glutamate (EC20) added with thallium
Chain of UniProt P70579 (P70579 whole entry, looked up): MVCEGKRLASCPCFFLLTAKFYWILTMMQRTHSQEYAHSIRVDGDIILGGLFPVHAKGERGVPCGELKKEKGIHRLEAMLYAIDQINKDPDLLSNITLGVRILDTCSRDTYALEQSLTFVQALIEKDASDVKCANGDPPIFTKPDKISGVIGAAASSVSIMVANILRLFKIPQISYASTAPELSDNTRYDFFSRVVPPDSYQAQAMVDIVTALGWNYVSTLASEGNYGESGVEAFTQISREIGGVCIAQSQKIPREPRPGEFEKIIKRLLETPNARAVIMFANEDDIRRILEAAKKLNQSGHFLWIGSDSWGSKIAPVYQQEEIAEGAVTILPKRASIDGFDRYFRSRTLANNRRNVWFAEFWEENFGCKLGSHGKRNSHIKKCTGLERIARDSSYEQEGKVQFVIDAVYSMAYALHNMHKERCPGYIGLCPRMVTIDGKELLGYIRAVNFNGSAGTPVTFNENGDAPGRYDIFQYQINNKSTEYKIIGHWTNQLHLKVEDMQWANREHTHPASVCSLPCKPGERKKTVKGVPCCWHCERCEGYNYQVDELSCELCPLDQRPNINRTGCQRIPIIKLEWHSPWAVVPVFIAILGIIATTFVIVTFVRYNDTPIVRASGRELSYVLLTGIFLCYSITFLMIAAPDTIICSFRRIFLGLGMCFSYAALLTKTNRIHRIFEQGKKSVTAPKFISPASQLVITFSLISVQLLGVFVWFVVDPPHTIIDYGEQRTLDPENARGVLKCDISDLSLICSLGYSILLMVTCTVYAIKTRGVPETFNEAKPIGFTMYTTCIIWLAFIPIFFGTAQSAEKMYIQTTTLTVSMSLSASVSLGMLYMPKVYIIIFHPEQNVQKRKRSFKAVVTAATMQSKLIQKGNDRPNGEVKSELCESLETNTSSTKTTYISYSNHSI

| Compound | z-score |
| --- | --- |
| Cc1ccc(-n2[nH]c(C)c(/C=C3/C=Nc4ccccc43)c2=O)cc1C | 0.229 |
| O=C(CCc1ccc(S(=O)(=O)N2CCOCC2)cc1)N1CCCC1 | 2.62 |
| O=C(NC(=S)Nn1cnc2c(cnn2-c2ccccc2)c1=O)c1ccc(Oc2ccccc2)cc1 | 2.08 |
| COc1ccc(N2CCN(C(=O)CCc3nc(-c4ccc(C)cc4)no3)CC2)cc1 | -0.121 |
| O=C(CSc1nc2cc(Cl)ccc2o1)Nc1ccc(N2CCOCC2)cc1 | 0.208 |
| Cc1cccc(C)c1Nc1nnc(SCc2cn3cccc(C)c3n2)s1 | -0.119 |
| COC(=O)c1[nH]c2ccc(Cl)cc2c1NC(=O)CN1CCc2cc(OC)c(OC)cc2C1 | -0.16 |
| Cc1sc2ncnc(OCC(=O)NCC3CCCO3)c2c1C (stereo not given) | 0.408 |
| CN1C(=O)C(O)(CC(=O)c2ccccn2)c2cc(Br)ccc21 (stereo not given) | 1.17 |
| COc1ccc(OC)c(C2CC(=O)c3c([nH]c(C(=O)OCC4CCCO4)c3C)C2)c1 (stereo not given) | 0.286 |
| CCN(CCNS(=O)(=O)c1ccc2c(c1)oc(=O)n2C)c1ccccc1 | 0.162 |
| O=C(COC(=O)c1ccc(F)cc1)Nc1ccccc1N1CCOCC1 | -0.182 |
| Cn1c(=O)c(=O)n(C)c2cc(S(=O)(=O)N3CCN(Cc4ccccc4)CC3)ccc21 | -0.418 |
| CC(C)[C@H](NC(=O)c1ccco1)C(=O)OCC(=O)N1CCc2ccccc21 | -0.646 |
| C/C(=N\Nc1ccc(F)cc1F)c1ccc(F)cc1 | -0.00789 |
| CCOP(=O)(OCC)C(NC(=O)Nc1ccc(Cl)cc1)c1ccccc1 (stereo not given) | 0.164 |
| O=C(NCCN1CCOCC1)NC1(C(F)(F)F)Oc2ccccc2O1 | -0.129 |
| Cn1c(SCC(=O)C(C)(C)C)nnc1-c1ccccn1 | -0.215 |
| CCn1c(SCC(=O)c2ccccc2)nnc1-c1cnccn1 | -0.894 |
| COc1ccc(NC(=S)N2N=CCC2c2ccccc2)cc1 (stereo not given) | -0.671 |
| Cc1ccc(/C=N/c2sc3c(c2C#N)CCC3)o1 | -0.653 |
| CCOC(=O)c1c(C)[nH]c(C(=O)COC(=O)CCS(=O)(=O)c2ccc(C)cc2)c1C | -0.00371 |
| O=[N+]([O-])c1ccc2nc(-c3ccccc3)cc(-c3ccccc3)c2c1 | -0.109 |
| N#CC(=C1SC=CS1)c1nc(-c2ccccc2)cs1 | 0.0939 |
| COCC(=O)NC1CCN(S(=O)(=O)c2ccc(C(=O)O)cc2)CC1 | 0.595 |
| CCSc1nc(-c2ccccc2)nc(C(Cl)Cl)n1 | 0.853 |
| COCCNC(=O)c1ccc(CS(=O)(=O)c2ccc(OC)cc2)o1 | -0.306 |
| CCC(C)Sc1nnc(Cc2cc(=O)[nH]c(=O)[nH]2)n1-c1ccc(OC)cc1 (stereo not given) | 0.424 |
| CCOC(=O)c1ccc(NC(=O)N2CCN(c3ccccn3)CC2)cc1 | -0.176 |
| Cc1ccc(-c2nc(C(=O)NC3CCCCCC3)no2)cc1 | 0.205 |
